Each structure is given as a SMILES string. Among all 310,000 compounds or so, about 2,200 (0.71%) showed an effect of 50% or more. The effect is printed as a negative number. Some of the results follow.

Chain of human ether-à-go-go-related gene (hERG) potassium channel (Q12809 whole entry, looked up): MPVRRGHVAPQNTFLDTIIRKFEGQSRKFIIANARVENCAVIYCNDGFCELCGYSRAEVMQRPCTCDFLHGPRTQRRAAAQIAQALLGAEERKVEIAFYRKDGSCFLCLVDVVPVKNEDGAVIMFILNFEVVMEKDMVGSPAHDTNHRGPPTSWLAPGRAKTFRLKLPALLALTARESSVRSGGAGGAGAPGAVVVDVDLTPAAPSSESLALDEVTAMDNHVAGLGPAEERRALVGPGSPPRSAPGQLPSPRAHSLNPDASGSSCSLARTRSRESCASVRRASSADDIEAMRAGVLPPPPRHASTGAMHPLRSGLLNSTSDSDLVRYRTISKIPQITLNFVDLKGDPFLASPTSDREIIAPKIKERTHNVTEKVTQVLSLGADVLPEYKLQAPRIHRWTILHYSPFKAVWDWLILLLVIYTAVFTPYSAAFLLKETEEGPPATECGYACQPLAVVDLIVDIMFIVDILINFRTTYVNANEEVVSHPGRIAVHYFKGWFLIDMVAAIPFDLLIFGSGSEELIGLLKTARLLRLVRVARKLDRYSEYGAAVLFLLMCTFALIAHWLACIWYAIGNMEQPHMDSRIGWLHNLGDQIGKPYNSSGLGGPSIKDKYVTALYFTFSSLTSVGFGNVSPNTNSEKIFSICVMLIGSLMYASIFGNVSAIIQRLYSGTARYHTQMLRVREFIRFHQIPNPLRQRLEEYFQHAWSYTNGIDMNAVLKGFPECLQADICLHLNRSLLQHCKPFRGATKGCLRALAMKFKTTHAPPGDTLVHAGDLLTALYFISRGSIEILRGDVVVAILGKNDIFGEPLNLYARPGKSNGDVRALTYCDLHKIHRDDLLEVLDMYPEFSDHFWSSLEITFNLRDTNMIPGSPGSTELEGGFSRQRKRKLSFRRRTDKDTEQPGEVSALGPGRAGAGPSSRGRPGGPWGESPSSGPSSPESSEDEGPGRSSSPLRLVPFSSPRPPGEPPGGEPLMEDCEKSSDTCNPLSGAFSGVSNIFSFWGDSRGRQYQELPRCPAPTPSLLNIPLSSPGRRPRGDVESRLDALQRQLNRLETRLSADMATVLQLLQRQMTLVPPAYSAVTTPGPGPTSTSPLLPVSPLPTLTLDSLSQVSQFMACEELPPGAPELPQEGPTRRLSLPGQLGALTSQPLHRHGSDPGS

This assay concerns the target human ether-à-go-go-related gene (hERG) potassium channel (human, UniProt Q12809). The assay is described as follows: primary screen, population patch clamp on CHO cells stably expressing hERG.
As for `CCC1(C)CC(=O)N(c2ccc(F)c(Cl)c2)C(=O)C1`, the “hERG current change (%, negative = inhibition) at 1uM” value is on record as 10.8%.

Consider `COc1ccc2c(c1)c(CC(=O)O)c(C)n2C(=O)c1ccc(Cl)cc1`, for which the “hERG current change (%, negative = inhibition) at 1uM” value amounted to 15.1%. On to `CCN(CC(=O)Nc1c(F)cccc1F)C(=O)c1csc2c1CCCC2`, for which the “hERG current change (%, negative = inhibition) at 1uM” value is listed as 10.9%. For `O=C(CCc1ccccc1)NNC(=O)Nc1ccc(F)c(Cl)c1`, the “hERG current change (%, negative = inhibition) at 1uM” value was 13.5%. Consider `CC/C(O)=C1\C(=O)CC(C)(C)CC1=NCCc1nc2ccccc2[nH]1`, for which the “hERG current change (%, negative = inhibition) at 1uM” value amounted to 15.7%. For `COc1cc(C(C)=O)ccc1COc1ccc(C(=O)OCC(=O)NC2CCS(=O)(=O)C2)cc1OC` (stereo not shown) the value was 11.3%; for `COc1ccc(OC)c(NC(=O)c2cccc(N3C(=O)C4C5C=CC(C6CC56)C4C3=O)c2)c1` (stereo not shown), 18.1%. Consider `O=c1[nH]c(=O)n(Cc2ccccc2)c2nc(-c3ccco3)cc(C(F)(F)F)c12`, for which the “hERG current change (%, negative = inhibition) at 1uM” value was 19.6%. As to `Cc1cc(=O)oc2c(CN3CCCC3)c(O)ccc12`, the “hERG current change (%, negative = inhibition) at 1uM” value worked out at 9.13%.

Consider `COc1cc(C(F)(F)F)nc2ccc(C#CCOC(=O)Nc3ccccc3)cc12`, for which the “hERG current change (%, negative = inhibition) at 1uM” value is reported as 14.4%. The figure for `CC(Oc1ccc(Cl)cc1Cl)/C(N)=N/O` (stereo not shown) is 12.9%. Consider `Cc1ccc(NC(=O)Cc2nnc(SCC(=O)Nc3nncs3)n2C)cc1`, for which the “hERG current change (%, negative = inhibition) at 1uM” value is reported as 8.26%. The figure for `O=C1c2ccccc2S(=O)(=O)c2cc(C(=O)N3CCN(c4ncccn4)CC3)ccc21` is 12.8%; for `COc1cc(Cl)cc(C#N)c1OCC(=O)O` it is 12.2%. For `O=C(NCCN1C(=O)S/C(=C\c2cccnc2)C1=O)c1cc(S(=O)(=O)N2CCOCC2)ccc1F` the value was 6.29%; for `O=C1OCc2ccc(NC(=O)c3sccc3Cl)cc21`, -0.0766%. For `COc1ccc(-c2csc3nc(-c4ccc(C)cc4)oc(=O)c23)cc1OC` the value was 8.18%; for `NS(=O)(=O)c1ccc(CCNC(=O)CCCn2ncn3c(cc4occc43)c2=O)cc1`, 17.2%.

As for `COC(=O)CCN(C(=O)c1cc(OC)c(OC)c(OC)c1)c1ccccn1`, the “hERG current change (%, negative = inhibition) at 1uM” value was 12.7%.

As for `COC(=O)c1sc(-c2cccs2)cc1NC(=O)/C=C/C(=O)O`, the “hERG current change (%, negative = inhibition) at 1uM” value was 19.7%. As for `COC(=O)c1scc(C)c1N/N=C(\C)c1cc(F)c(Cl)cc1F`, the “hERG current change (%, negative = inhibition) at 1uM” value was 17.3%. The figure for `Cc1ccc(NC(=O)c2cc(S(=O)(=O)NCCc3ccccc3)ccc2F)cc1Cl` is 7.45%.

For `CCC(C)Sc1nnc(NS(=O)(=O)Cc2ccccc2)s1` (stereo not shown), the “hERG current change (%, negative = inhibition) at 1uM” value was found to be 22.6%. As to `O=C(O/N=C(/c1ccccc1)c1ccncc1)c1ccc(F)cc1`, the “hERG current change (%, negative = inhibition) at 1uM” value is given as 6.82%.

In the case of `O=c1c2ccccc2nnn1CSc1nnc(COc2ccc(Cl)cc2)n1Cc1ccco1`, the “hERG current change (%, negative = inhibition) at 1uM” value is given as -13%. The figure for `CC1CC1c1ccc(/C=C(\C#N)C(=O)Nc2ccccc2Cl)o1` (stereo not shown) is 5.73%; for `CC(C)(C)OC(=O)NCCC(=O)N/N=C/c1ccc2ncccc2c1` it is 15.7%. For `Cn1c(NC(=O)c2ccc(F)c(F)c2)cc(=O)n(C)c1=O` the value was 3.23%; for `NC(=O)CSc1nnc(Cn2c(=O)sc3ccccc32)n1-c1cccc(Cl)c1`, 14%. `CN(C)c1ccc(/C=C/[N+](=O)[O-])cc1`: the “hERG current change (%, negative = inhibition) at 1uM” value is 4%.

As to `Cc1cc(/C=C2/C(=N)N3C(=NC2=O)SN=C3S(C)(=O)=O)c(C)n1-c1ccc(F)cc1`, the “hERG current change (%, negative = inhibition) at 1uM” value worked out at 27.7%.

As to `CC1CCN(c2ccc3nnc(CCC(=O)Nc4cccc(F)c4)n3n2)CC1`, the “hERG current change (%, negative = inhibition) at 1uM” value came out at 2.38%.

Turning to `CCN(CC)S(=O)(=O)c1ccc(N2CCCC2)c(NC(=O)C2=NN(c3ccccc3)C(=O)CC2)c1`, the “hERG current change (%, negative = inhibition) at 1uM” value is 1.57%. For `N#Cc1ccccc1/C=N/Nc1nc(-c2ccccc2)c2cc(Cl)ccc2n1` the value was -3.61%; for `CN(C)CCNc1nc2c(c(=O)[nH]c(=O)n2C)n1CCOc1ccccc1`, 0.0662%. The figure for `CCOC(=O)c1ccc(NC(=O)COc2ccccc2CNCCO)cc1` is -0.0968%. As to `Cc1ccnc(NC(=O)c2cccc(S(=O)(=O)N3CCOCC3)c2)c1`, the “hERG current change (%, negative = inhibition) at 1uM” value is listed as -5.09%.

`Cc1ccc(NS(=O)(=O)c2ccc(C(=O)NCC(c3ccco3)N(C)C)cc2)cc1` (stereo not shown): the “hERG current change (%, negative = inhibition) at 1uM” value is listed as 5.78%.

For the compound `Cc1ccc(C(=O)Nc2nnc(-c3cccs3)s2)cc1C`, the “hERG current change (%, negative = inhibition) at 1uM” value is 7.89%.

With `O=C(Nc1ccn(Cc2c(F)c(F)cc(F)c2F)n1)c1ccc(COc2ccc(Cl)cc2Cl)o1`, the “hERG current change (%, negative = inhibition) at 1uM” value was 7.71%. Regarding `COc1cccc(-c2noc(CCC(=O)NCC3CCCO3)n2)c1` (stereo not shown), the “hERG current change (%, negative = inhibition) at 1uM” value was found to be 8.88%. The figure for `O=C(NCCN1CCOCC1)c1ccccc1-c1ccccc1` is 5.47%; for `COc1cccc(CN(C)C(=O)C(CCSC)NS(=O)(=O)c2ccc3c(c2)OCCO3)c1OC` (stereo not shown) it is 6.03%; for `CC(=O)N1CCC(c2c[nH]c3ccccc23)CC1` it is 14.8%. For the compound `C[C@@H](CSc1ccc(Br)cc1)CN1CC[C@H](C(C)(C)C)CCC1=O`, the “hERG current change (%, negative = inhibition) at 1uM” value is 13.1%.

Turning to `S=c1[nH]nc(-c2ccc3ccccc3n2)n1-c1ccccc1`, the “hERG current change (%, negative = inhibition) at 1uM” value came to 22.2%. For `Cc1ccc(S(=O)(=O)NCC(C)NC(=O)CN2CCOCC2)cc1` (stereo not shown) the value was 16.3%.

For `CCC(=NCCc1ccc(OC)c(OC)c1)c1ccccc1O`, the “hERG current change (%, negative = inhibition) at 1uM” value turned out to be 16.9%. Turning to `Cn1cc(C(=O)NC2CCCCCC2)c(=O)c2cc(S(=O)(=O)N3CCCC3)ccc21`, the “hERG current change (%, negative = inhibition) at 1uM” value came to 5.63%. As for `Cc1cccc(CN(C)CCc2ccccn2)c1`, the “hERG current change (%, negative = inhibition) at 1uM” value is listed as -1.69%.

`O=C(N/N=C(\c1ccccc1)c1ccccn1)c1cccc([N+](=O)[O-])c1`: the “hERG current change (%, negative = inhibition) at 1uM” value was -15.5%. The figure for `COc1cc2nc(N3CCN(C(=O)[C@H]4COc5ccccc5O4)CC3)nc(N)c2cc1OC` is 0.273%.

Turning to `CCc1cccc(NC(=O)C2CCCN(S(=O)(=O)c3cnc[nH]3)C2)c1` (stereo not shown), the “hERG current change (%, negative = inhibition) at 1uM” value is 10.6%.

Regarding `COc1ccc(-c2noc(-c3ccccc3F)n2)cc1`, the “hERG current change (%, negative = inhibition) at 1uM” value is given as 14.2%. `CCOC(=O)C(CCC#N)(CCC#N)C(=O)OCC`: the “hERG current change (%, negative = inhibition) at 1uM” value worked out at 8.18%. The figure for `CCCc1nc2nc(C)c(NS(=O)(=O)c3ccc4c(c3)CCCC4)c(=O)n2[nH]1` is 12.6%.

Consider `COc1ccc(CNC[C@@H](CCCCN(C)Cc2ccc(OC)cc2)N2C[C@H](c3ccccc3)N(CCc3ccc(Cl)c(Cl)c3)C(=O)C2=O)cc1`, for which the “hERG current change (%, negative = inhibition) at 1uM” value was found to be 11.2%. Turning to `O=C(COC(=O)c1ccc2ncsc2c1)NCc1ccc(Cl)cc1`, the “hERG current change (%, negative = inhibition) at 1uM” value is 11.3%. The figure for `COc1ccc(CCN2C(=NC(C)=O)SC3CS(=O)(=O)CC32)cc1OC` (stereo not shown) is 11.1%. Take `CC1Cc2cc(/C(O)=C3\C(=O)C(=O)N(CCN(C)C)C3c3ccccc3F)ccc2O1` (stereo not shown): the “hERG current change (%, negative = inhibition) at 1uM” value is on record as 10.5%.

`CN1CCC(NC(=O)CCc2ccccc2)CC1`: the “hERG current change (%, negative = inhibition) at 1uM” value worked out at 24.9%. The figure for `CCc1ccc(NC(=O)CSC2=C(C#N)C(c3ccco3)C3=C(CCCC3=O)N2)cc1` (stereo not shown) is 2.99%; for `COc1ccc(S(=O)(=O)N(CCCN2CCCC2=O)Cc2cc3c(C)ccc(C)c3[nH]c2=O)cc1` it is -3.03%. The figure for `COc1ccc(CC(=O)NNS(=O)(=O)c2ccc([N+](=O)[O-])cc2)cc1OC` is 16%. For `Cc1ccccc1/C(N)=N/OC(=O)c1cccs1` the value was 5.41%; for `Cn1c(N)c(C(=O)Nc2cccc(Cl)c2)c(=O)n(C)c1=O`, 13.1%; for `CCCCOc1cccc(OCC(=O)Nc2nc3ccccc3[nH]2)c1`, 25.8%. Turning to `O=C(CSc1ncnc2ccccc12)c1cccs1`, the “hERG current change (%, negative = inhibition) at 1uM” value is on record as 7.28%. For `Cc1cccc(/C(N)=N/OC(=O)CCc2ccccc2)c1` the value was 9.46%. In the case of `CSc1nsc(SCC(=O)Nc2ccc(C(N)=O)cc2)n1`, the “hERG current change (%, negative = inhibition) at 1uM” value is listed as 14.3%. As for `CN1CCN(C(=O)CCC(=O)c2ccc(F)cc2)CC1`, the “hERG current change (%, negative = inhibition) at 1uM” value is given as 8.17%. For `O=C(NN=C1CCC(c2ccccc2)CC1)c1ccccc1-n1cccc1` (stereo not shown) the value was 8.39%; for `CCn1c(=O)c2ccccc2n2c(SCC(=O)NCc3cccs3)nnc12`, 11.3%; for `COC(=O)c1sc(NC(=O)C2CCCO2)c(C(=O)OC)c1C` (stereo not shown), 12.2%.

For the compound `CCOC(=O)c1ccc(NC(=O)NC2CC3CCC(C2)N3C(=S)NC)cc1` (stereo not shown), the “hERG current change (%, negative = inhibition) at 1uM” value worked out at 12.6%. For `CCOc1cccc(/C(O)=C2/C(=O)C(=O)N(Cc3ccco3)C2c2ccncc2)c1` (stereo not shown), the “hERG current change (%, negative = inhibition) at 1uM” value turned out to be 5.77%. As to `Cc1ccccc1OCC(=O)NCCCNC(=O)c1ccco1`, the “hERG current change (%, negative = inhibition) at 1uM” value turned out to be 4.46%. For `O=C(NC(C(=O)N/N=C/c1cccnc1)c1n[nH]c(=O)c2ccccc12)c1ccccc1` (stereo not shown) the value was 6.62%. For `CCc1ccc(-n2c(C)n[nH]c2=S)cc1` the value was 11.1%; for `CCCN(C(=O)COC(=O)c1nc2nc(C)cc(C)n2n1)C1CCS(=O)(=O)C1` (stereo not shown), 7.8%; for `O=C1[C@@H]2[C@H](C(=O)N1O)[C@H]1C=C[C@@H]2C1`, 1.44%. For `CCCCOC(=O)Sc1nc2ccccc2o1` the value was 11.5%; for `CCN(CC)c1ccc(NC(=O)C2CC3CCC2C3)cc1` (stereo not shown), 2.08%; for `COCCSc1nnc(NS(=O)(=O)c2ccc(C)cc2)s1`, 7.8%. Consider `COc1ccc(CCNC(=O)CC2COc3ccccc3O2)cc1OC` (stereo not shown), for which the “hERG current change (%, negative = inhibition) at 1uM” value was found to be 8.23%. For `COc1ccc(C(=O)CC(=O)c2ccccc2)cc1` the value was 5.2%; for `CCCCNCCCOc1ccc(C)cc1Br.O=C(O)C(=O)O`, 3.78%.

For the compound `O=C(Oc1cccc([N+](=O)[O-])c1)N1CCCCC1`, the “hERG current change (%, negative = inhibition) at 1uM” value was 0.172%.

Values taken from article PMC4336329 (PLoS ONE, 2015).
